Reference: PubChem BioAssay AID212 (DTP/NCI, 2004)
Inconclusive results are not listed. Some entries of the source have several records that differ or are many. This is not the full list of results. An entry can have further records. Values given together repeat one measurement in other runs, samples, wells, individuals or studies. Marks such as (2×) stand for listed records that agree.

System: BDF1 mice, colon carcinoma 38 sc, T/C %
Test: NCI In Vivo Anticancer Drug Screen. Data for tumor model Colon Carcinoma 38 (subcutaneous) in B6D2F1 (BDF1) mice
Conditions: endpoint: median tumor weight (est.), higher = larger tumour
Method in brief: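 Ratio of survival or tumor size, compound-treated animals relative to vehicle controls, in tumor-bearing mice.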

[1] = dose: 12.5 mg/kg/injection, schedule: Q07DX002 (ip), vehicle: saline
[2] = dose: 50.0 mg/kg/injection, schedule: Q07DX002 (ip), vehicle: saline
[3] = dose: 100.0 mg/kg/injection, schedule: Q07DX002 (ip), vehicle: saline
[4] = dose: 25.0 mg/kg/injection, schedule: Q07DX002 (ip), vehicle: saline
[5] = dose: 12.5 mg/kg/injection, schedule: Q07DX002 (ip), vehicle: Klucel (hydroxypropylcellulose) (HPC)
[6] = dose: 100.0 mg/kg/injection, schedule: Q07DX002 (ip), vehicle: Klucel (hydroxypropylcellulose) (HPC)

C=C1CC2(OC1=O)C(=O)N(C)c1ccc(I)cc12 (stereo unspecified)
T/C [1]: 98 % of control and 181 % of control
T/C [2]: 77 % of control and 115 % of control
T/C [3]: 70 % of control and 101 % of control

OCC1(CO)COC2(CCCCC2)N1
T/C [1]: 65 % of control and 112 % of control
T/C [4]: 122 % of control and 164 % of control
T/C [2]: 71 % of control and 105 % of control

Nc1ncnc2c1ccn2C1OC(CO)C(O)C1O (stereo unspecified)
T/C (dose: 4.0 mg/kg/injection, schedule: Q07DX003 (ip), vehicle: Klucel (hydroxypropylcellulose) (HPC)): 48 % of control and 94 % of control

Nc1ncn(C2CC(O)C(CO)O2)c(=O)n1 (stereo unspecified)
T/C (dose: 0.37 mg/kg/injection, schedule: Q07DX002 (ip), vehicle: saline): 32 % of control and 188 % of control
T/C (dose: 0.75 mg/kg/injection, schedule: Q07DX002 (ip), vehicle: saline): 43 % of control and 75 % of control
T/C (dose: 1.5 mg/kg/injection, schedule: Q07DX002 (ip), vehicle: saline): 37 % of control and 65 % of control

COc1cc(NCc2ccc3nc(N)nc(N)c3c2C)cc(OC)c1OC
T/C (dose: 3.75 mg/kg/injection, schedule: Q07DX002 (ip), vehicle: sodium bicarbonate): 152 % of control and 198 % of control
T/C (dose: 7.5 mg/kg/injection, schedule: Q07DX002 (ip), vehicle: sodium bicarbonate): 75 % of control and 150 % of control
T/C (dose: 15.0 mg/kg/injection, schedule: Q07DX002 (ip), vehicle: sodium bicarbonate): 110 % of control and 166 % of control
T/C (dose: 30.0 mg/kg/injection, schedule: Q07DX002 (ip), vehicle: sodium bicarbonate): 37 % of control and 118 % of control
T/C (dose: 60.0 mg/kg/injection, schedule: Q07DX002 (ip), vehicle: sodium bicarbonate): 15 % of control and 48 % of control

C/C=C/c1cc2n(c1)C(=O)c1cc(OC3OC(C)C(NC)C(C)(O)C3O)c(C)c(O)c1NC2O (stereo unspecified)
T/C (dose: 4.0 micrograms/kg/injection, schedule: Q07DX002 (ip), vehicle: saline): 60 % of control and 100 % of control
T/C (dose: 8.0 micrograms/kg/injection, schedule: Q07DX002 (ip), vehicle: saline): 88 % of control and 118 % of control
T/C (dose: 16.0 micrograms/kg/injection, schedule: Q07DX002 (ip), vehicle: saline): 73 % of control and 102 % of control

CN(C)C=O
T/C [3]: 60 % of control and 108 % of control

Cc1c2ccc3ccccc3c2c[n+]2ccccc12
T/C (dose: 2.5 mg/kg/injection, schedule: Q07DX002 (ip), vehicle: Klucel (hydroxypropylcellulose) (HPC)): 58 % of control and 98 % of control
T/C (dose: 20.0 mg/kg/injection, schedule: Q07DX002 (ip), vehicle: Klucel (hydroxypropylcellulose) (HPC)): 66 % of control and 94 % of control

COC1=CC(=O)C(OC)=C(OC)C1=O
T/C (dose: 25.0 mg/kg/injection, schedule: Q07DX002 (ip), vehicle: saline with Tween-80): 72 % of control and 187 % of control

CCCCCCCCCCCCCCCCCC(=O)OCC(=O)OCC(=O)[C@]1(O)Cc2c(O)c3c(c(O)c2[C@@H](OC2CC(N)C(O)C(C)O2)C1)C(=O)c1c(OC)cccc1C3=O (stereo partly specified)
T/C (dose: 13.5 mg/kg/injection, schedule: Q07DX002 (ip), vehicle: saline with Tween-80): 43 % of control, 69 % of control, 78 % of control

c1ccc([C@H]2CN3CCSC3=N2)cc1
T/C (dose: 2.5 mg/kg/injection, schedule: Q07DX003 (ip), vehicle: saline): 66 % of control and 165 % of control
T/C (dose: 5.0 mg/kg/injection, schedule: Q07DX003 (ip), vehicle: saline): 75 % of control and 117 % of control
T/C (dose: 20.0 mg/kg/injection, schedule: Q07DX003 (ip), vehicle: saline): 77 % of control and 120 % of control

C[C@]12C=CC(=O)C=C1CC[C@@H]1[C@@H]2C(=O)C[C@@]2(C)[C@H]1CC[C@]2(O)C(=O)CO
T/C (dose: 400.0 mg/kg/injection, schedule: Q07DX002 (ip), vehicle: Klucel (hydroxypropylcellulose) (HPC)): 58 % of control and 115 % of control

Cc1[nH]c(=O)[nH]c(=O)c1N(CCF)CCCl
T/C (dose: 8.0 mg/kg/injection, schedule: Q07DX002 (ip), vehicle: Klucel (hydroxypropylcellulose) (HPC)): 67 % of control and 98 % of control

C[C@H](N)C(=O)N[C@@H]1[C@H]2C(=C(O)C[C@@H](O)[C@@H]2O)C(=O)O[C@]1(C)C(Cl)Cl
T/C (dose: 0.75 mg/kg/injection, schedule: Q07DX002 (ip), vehicle: Klucel (hydroxypropylcellulose) (HPC)): 91 % of control and 120 % of control
T/C (dose: 1.5 mg/kg/injection, schedule: Q07DX002 (ip), vehicle: Klucel (hydroxypropylcellulose) (HPC)): 40 % of control and 72 % of control

Cc1c2cc[n+](CCN3CCCCC3)cc2c(C)c2c1[nH]c1ccc(O)cc12
T/C [1]: 53 % of control and 116 % of control
T/C [2]: 38 % of control and 88 % of control

CCC[CH2][Sn]1([CH2]CCC)[O]C2C(CO)OC(n3ccc(N)nc3=O)C2[O]1 (stereo unspecified)
T/C (dose: 0.78 mg/kg/injection, schedule: Q07DX002 (ip), vehicle: Klucel (hydroxypropylcellulose) (HPC)): 65 % of control and 104 % of control
T/C (dose: 3.12 mg/kg/injection, schedule: Q07DX002 (ip), vehicle: Klucel (hydroxypropylcellulose) (HPC)): 73 % of control and 103 % of control
T/C (dose: 6.25 mg/kg/injection, schedule: Q07DX002 (ip), vehicle: Klucel (hydroxypropylcellulose) (HPC)): 54 % of control and 101 % of control
T/C [5]: 38 % of control and 106 % of control

NC(=O)c1ccc[n+](Cc2c(Cl)cccc2Cl)c1
T/C [2]: 61 % of control and 97 % of control

CN(Cc1cnc2nc(N)nc(N)c2n1)c1c(Cl)cc(C(=O)NC(CCC(=O)O)C(=O)O)cc1Cl (stereo unspecified)
T/C (dose: 25.0 mg/kg/injection, schedule: Q07DX003 (ip), vehicle: Klucel (hydroxypropylcellulose) (HPC)): 63 % of control and 94 % of control

CC(=O)N(C)C
T/C (dose: 450.0 mg/kg/injection, schedule: Q07DX002 (ip), vehicle: saline): 66 % of control and 111 % of control

CCN(CC)CCCNc1nccc2c(C)c3[nH]c4ccncc4c3cc12
T/C (dose: 2.5 mg/kg/injection, schedule: Q07DX002 (ip), vehicle: other): 70 % of control and 111 % of control
T/C (dose: 5.0 mg/kg/injection, schedule: Q07DX002 (ip), vehicle: other): 30 % of control and 64 % of control
T/C (dose: 10.0 mg/kg/injection, schedule: Q07DX002 (ip), vehicle: other): 19 % of control and 92 % of control

O=Cc1ccc([N+](=O)[O-])s1
T/C (dose: 12.5 mg/kg/injection, schedule: Q07DX002 (ip), vehicle: saline with Tween-80): 62 % of control and 109 % of control

N=C(N)Sc1ccccn1
T/C (dose: 12.5 mg/kg/injection, schedule: Q07DX003 (ip), vehicle: saline): 45 % of control and 109 % of control
T/C (dose: 25.0 mg/kg/injection, schedule: Q07DX003 (ip), vehicle: saline): 86 % of control and 120 % of control

C[N+](C)(C)c1ncnc2c1ncn2C1CCCO1 (stereo unspecified)
T/C [3]: 35 % of control and 104 % of control

CC1=C(/C=C/C(C)=C/C=C/C(C)=C/CO)C(C)(C)CCC1
T/C (dose: 16.0 mg/kg/injection, schedule: Q07DX003 (ip), vehicle: saline with Tween-80): 117 % of control and 200 % of control
T/C (dose: 128.0 mg/kg/injection, schedule: Q07DX003 (ip), vehicle: saline with Tween-80): 49 % of control and 85 % of control

CCN(CC)CCOC(=O)Cc1cccc2c(=O)cc(-c3ccccc3)oc12
T/C [1]: 59 % of control and 105 % of control
T/C [6]: 50 % of control and 107 % of control

CCN(CC)CCC(=O)c1ccccc1
T/C [4]: 40 % of control and 88 % of control
T/C [2]: 110 % of control and 152 % of control

COC1OC(CO)C(O)C(NC(=O)N(C)N=O)C1O (stereo unspecified)
T/C [4]: 68 % of control and 113 % of control
T/C [3]: 64 % of control (2×) and 111 % of control
T/C (dose: 200.0 mg/kg/injection, schedule: Q07DX002 (ip), vehicle: saline): 22 % of control, 75 % of control, 81 % of control
T/C (dose: 400.0 mg/kg/injection, schedule: Q07DX002 (ip), vehicle: saline): 18 % of control, 37 % of control, 45 % of control

Cc1cc(N2C(=O)CCSC2=S)ccc1Cl
T/C [5]: 83 % of control and 177 % of control
T/C (dose: 25.0 mg/kg/injection, schedule: Q07DX002 (ip), vehicle: Klucel (hydroxypropylcellulose) (HPC)): 70 % of control and 107 % of control
T/C (dose: 50.0 mg/kg/injection, schedule: Q07DX002 (ip), vehicle: Klucel (hydroxypropylcellulose) (HPC)): 84 % of control, 91 % of control, 197 % of control
T/C [6]: 33 % of control and 195 % of control
T/C (dose: 200.0 mg/kg/injection, schedule: Q07DX002 (ip), vehicle: Klucel (hydroxypropylcellulose) (HPC)): 43 % of control, 107 % of control, 239 % of control
